Out of some 390,000 compounds screened, about 930 (0.24%) were called active. The inconclusive results got no clear call from the source; some entries with a clear call stand among them for comparison. Calls come from the whole dose curve; as a rule, active = well fitted activation curve with a large enough effect; inconclusive = small, poorly fitted or top-dose-only effect; inactive = no such curve, though single readings can be large or run the other way. A potency beside an inconclusive call is a rough fit, not a confirmed value.
experiment: qHTS for Suppressors of FUS Proteinopathy: Primary screen using FUS-linked yeast assay; note: nearly all actives have a fitted effect of over 55% in size; settings: S. cerevisiae FUS-expressing, OD600, 24 h; Potency: growth rescue; series mostly up to 76.6 µM
Method in brief: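 Cultures pregrown in 2.5% raffinose medium are shifted to minimal medium containing 2% galactose to express toxic FUS. Compounds are tested at several concentrations. After 24hr at 30C, growth is quantified at 600 nm absorbance.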
Potency is the fitted concentration of half-maximal effect; tags give direction and shape of the fitted curve.

SMILES | Potency
COc1ccccc1N(CC(=O)Nc1cc(C)on1)S(=O)(=O)c1cccc(C(F)(F)F)c1 | inconclusive: 31.6 µM [activator, single point]
COc1cc(C(=O)NC2CC(=O)N(c3cccc(F)c3)C2)cc(OC)c1OC (configuration not stated) | inactive
O=C(Cn1cc(SCc2cccc(Cl)c2)c2ccccc21)N1CCOCC1 | inconclusive: 35.5 µM [activator, single point]
CC1CCCC(NC(=O)CN2C(=O)c3cccnc3Oc3ccc(Cl)cc32)C1C (configuration not stated) | inconclusive: 28.2 µM [activator, partial curve]
Cc1ccc(C(=O)CC2(O)C(=O)N(CCc3ccccc3)c3ccc(Br)cc32)o1 (configuration not stated) | inconclusive: 11.2 µM [activator, single point]
CCCCn1c(N)c(N(CC(C)C)C(=O)C2CCN(c3ncnc4sc(C)c(C)c34)CC2)c(=O)[nH]c1=O | inconclusive: 20 µM [activator, partial curve]
CN=C1S/C(=C\c2ccc(Cl)cc2)C(=O)N1C | inactive
O=[N+]([O-])c1cc(S(=O)(=O)Nc2ccc(Cl)cc2)ccc1N/N=C/c1ccncc1 | inactive
CC(=O)Nc1cc(-c2cccc(C(=O)NCCO)c2)cn2c(-c3cccc(C(F)(F)F)c3)cnc12 | inconclusive: 35.5 µM [activator, single point]
COc1cc2c(cc1OC)C(NC(=O)C(F)(F)F)CNC2=O (configuration not stated) | inactive
CCOc1ccccc1N(C)C(=O)C1CCCN(c2ncnc3onc(-c4ccc(F)cc4)c23)C1 (configuration not stated) | inactive
CCC(c1nc2ccccc2[nH]1)n1c(-c2ccc3ccccc3c2)nc2ccccc21 (configuration not stated) | inconclusive: 20 µM [activator, partial curve, poor fit]
CC(C)c1ccc(NC(=O)C2Cc3c(-c4cccc(F)c4)ccnc3O2)cc1 (configuration not stated) | inconclusive: 35.5 µM [activator, single point]
Fc1ccccc1NC(=S)NCCc1cccc(Cl)c1 | inactive
CCCCCCn1c(=O)n2n(c1=O)[C@@H]1CN(S(=O)(=O)c3ccc(C)cc3)C[C@]1(O)[C@@H](OC(=O)NCC1CCCCC1)C2 | inconclusive: 31.6 µM [activator, single point]
Cc1ccc(NC(=O)c2cccn2-c2nnc(N3CCCCC3)s2)cc1Cl | inactive
O=C(NCc1ccc(F)cc1)c1ccc(NC(=O)N2CC3CCCN3c3ccccc32)cc1 (configuration not stated) | inconclusive: 39.8 µM [activator, single point]
Cn1cccc1Cc1nnc(SCC(=O)Nc2ccccc2)n1-c1ccc(F)cc1 | inconclusive: 35.5 µM [activator, single point]
CC(C)(C)n1nc(-c2ccc(F)cc2)c2c(N)ncnc21 | inactive
COc1ccccc1N1CCN(C(=O)c2oc3cc(C)cc(C)c3c2C)CC1 | inconclusive: 28.2 µM [activator, single point]
CN(CC(=O)Nc1cccc(F)c1)C(=O)CCc1nc2sc3c(c2c(=O)[nH]1)CCCC3 | inactive

SMILES | Potency
FC(F)(F)c1cc(CCN2C(=S)NC[C@@H]2Cc2ccccc2)cc(C(F)(F)F)c1 | inconclusive: 17.8 µM [activator, partial curve]
Cc1cc(O)c(C(c2ccccc2Cl)N2CCN(c3ccccc3)CC2)c(=O)n1Cc1ccco1 (configuration not stated) | inactive
Cc1ccc(NC(=O)Cn2c(-c3ccc4c(c3)OCO4)cn(-c3ccccc3)c2=O)cc1 | inconclusive: 22.4 µM [activator, single point]
O=C(O)C1C2C=CC(C3CC23)C1C(=O)O (configuration not stated) | inactive
CN(CC1COc2ccccc2O1)C(=O)CSc1ncccn1 (configuration not stated) | inconclusive: 5.01 µM [activator, single point]
CCC(C(=O)Nc1cccc(C#N)c1)n1c(=O)c(-c2ccccc2NC(C)=O)nc2ccccc21 (configuration not stated) | inconclusive: 39.8 µM [activator, single point]
O=C(CSc1oc(-c2ccco2)nc1S(=O)(=O)c1ccc(Cl)cc1)c1ccc(Cl)cc1 | inconclusive: 35.5 µM [activator, single point]
CCOc1ccccc1NC(=O)CC1Nc2ccccc2NC1=O (configuration not stated) | inconclusive: 28.2 µM [activator, partial curve, poor fit]
CCCc1cc(=O)[nH]c(SCC(=O)CSc2nc(CCC)cc(=O)[nH]2)n1 | inconclusive: 6.31 µM [activator, partial curve]
COc1ccc(Br)c(C(=O)Nc2cc3c(cc2N2CCCC2)n(C)c(=O)c(=O)n3C)c1 | inactive
Cc1nnc(N2C(=O)C(O)=C(C(=O)c3ccco3)C2c2ccc(C(C)C)cc2)s1 (configuration not stated) | active: 7.08 µM
COC(=O)c1cccc(NC(=O)c2ccc(S(=O)(=O)N(C)c3ccccc3OC)cc2)c1 | inconclusive: 28.2 µM [activator, single point]
COc1ccc(CNC(=O)CCc2c(C)nn(-c3ccc(N4CCCCC4)nn3)c2C)cc1 | inactive
COCCn1c(-c2cc(OC)c(OC)c(OC)c2)nc2oc3ccccc3c(=O)c2c1=O | inconclusive: 31.6 µM [activator, partial curve, poor fit]
CCC(NC(=O)Nc1cc(Cl)ccc1OC)c1c(-n2cccc2)sc2c1CCN(C)C2 (configuration not stated) | inconclusive: 35.5 µM [activator, single point]
CCOc1ccc2nc(N3C(=O)C(O)=C(C(=O)c4ccco4)C3c3ccco3)sc2c1 (configuration not stated) | inactive
Cc1ccc(S(=O)(=O)Nc2cccc(-c3ccc(N4CCCCCC4)nn3)c2)cc1C | active: 22.4 µM
Cc1ccc(CNC(=O)c2ccc(N3CCC4(CC3)CC(c3ccccc3)=NO4)c(NC(=O)c3ccco3)c2)cc1 | active: 17.8 µM
Cc1ccc(S(=O)(=O)Nc2ccccc2C(=O)Nc2ccc(S(=O)(=O)Nc3nccc(C)n3)cc2)cc1 | inconclusive: 35.5 µM [activator, single point]
COc1ccc(C(C(O)C(=O)c2c[nH]c3ccccc23)N2CCN(c3ccccc3)CC2)cc1 (configuration not stated) | inconclusive: 35.5 µM [activator, partial curve]
Cc1cc(N(C)Cc2ccccc2)n2nc(-c3ccc(C(C)(C)C)cc3)nc2n1 | inconclusive: 28.2 µM [activator, single point]

Reference: PubChem BioAssay AID1347120 (National Center for Advancing Translational Sciences (NCATS), 2019)
